From the RNAGym collection of RNA variant scans (doi:10.1073/pnas.2313332121)
This sample is rich in variants without activity.

B1: TPR 5TU (parent)
chain: GGAUCUUCUCGAUCUAACAAAAAAGACAAAUCUGCCACAAAGCUUGAGAGCAUCUUCGGAUGCAGAGGCGGCAGCCUUCGGUGGCGCGAUAGCGCCAACGUUCUCAACUAUGACACGCAAAACGCGUGCUCCGUUGAAUGGAGUUUAUCAUG

Variants of: B1
Assay: polymerase ribozyme fitness, log enrichment relative to wild type (log ratio); higher = more active; in vitro selection for triplet polymerase activity
Summary of the method: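 One round of in vitro selection, in triplicate, was applied to PCR-built, transcribed mutant libraries of each subunit of a heterodimeric triplet polymerase ribozyme. The steps were annealing with a biotinylated primer, partner subunit and triplets, incubation frozen at −7 °C, gel excision of extended constructs, streptavidin-bead capture and RT-PCR. Fitness is the logarithm, base 2, of genotype enrichment over wild-type enrichment from inverse-variance-weighted replicate averages of Illumina-sequenced inputs and outputs, keeping genotypes with ≥10 input reads and ≥1 read per output.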

Variant	polymerase ribozyme fitness (log ratio)
A28U C51U C93G A120C G140A	≤ -4.2
A28U C51U C93U	≤ -4.2
A28U C54A C69A G84A A97U U151G	≤ -4.2
A28U C54A G83A A121U	≤ -4.2
A28U C54U C63U G71U C108U C114U A137U U139G A150G	≤ -4.2
A28U C54U C87G G133A	≤ -4.2
A28U C54U G68A A97U C108A	≤ -4.2
A28U C57G C85G G92A A115C	≤ -4.2
A28U C72U	≤ -4.2
A28U C87A U144A	≤ -4.2
A28U C87U U134A	≤ -4.2
A28U C96A	-3.93
A28U C103A A147C	≤ -4.2
A28U G42C U44C C75G C96A A115G	≤ -4.2
A28U G48C A52C G67A C69G C93A	≤ -4.2
A28U G48C C76U G83A G94A A106G	≤ -4.2
A28U G48U A49G C54A U55A A107C A113U	≤ -4.2
A28U G50A C85G	≤ -4.2
A28U G50A U55C U139G	≤ -4.2
A28U G50C A66C G86U A106U	≤ -4.2
A28U G50C G83C A110C	≤ -4.2

Variant	polymerase ribozyme fitness (log ratio)
A28U G50U C79G U90G A137G	≤ -4.2
A28U G50U G59A	≤ -4.2
A28U G58A C95U C105G G136U	≤ -4.2
A28U G58U A91U C103U U104G A121U G141C	≤ -4.2
A28U G58U C79G G92U	≤ -4.2
A28U G62A G65A G94A G136A	≤ -4.2
A28U G62U G68A G80C G83A	≤ -4.2
A28U G84U	≤ -4.2
A28U G86U C132G A147U	≤ -4.2
A28U U31G	≤ -4.2
A28U U33A C69G C72A U78G C79U G83A	≤ -4.2
A28U U53A G81C C95G A107U U139A	≤ -4.2
A28U U53A U77C G80C A120G U151G	≤ -4.2
A28U U53C C105G A106G	≤ -4.2
A28U U53G A66G C69A C79G G94C C108G C129U A137U	≤ -4.2
A28U U55C C96A	≤ -4.2
A28U U56A G81A C95U	≤ -4.2
A28U U61A C79G C87G	≤ -4.2
A28U U61G C75G A91G G100C C105U A110G	≤ -4.2
A28U U104A	≤ -4.2
A29C A30C G65A C93U	≤ -4.2

Variant	polymerase ribozyme fitness (log ratio)
A29C A30U A97U C103U C116G G133A	≤ -4.2
A29C A30U U82A G84A C123U U127C C149G	≤ -4.2
A29C A37C A60U C85A G117A G133U	≤ -4.2
A29C A39U G74C C76A C132A	≤ -4.2
A29C A40U A41C G84A G141A	≤ -4.2
A29C A41C G46U G68U C85U C87A A107U	≤ -4.2
A29C A41U G83A A138U	≤ -4.2
A29C A47G G50C C54U C95U G126A A142U	≤ -4.2
A29C A47U A60U C63G A115U A137C	≤ -4.2
A29C A49C A52G G83U G100A U135G	≤ -4.2
A29C A49C C57G C132U	≤ -4.2
A29C A49G U77C C85G	≤ -4.2
A29C A49U A52C C54A A89C C123A U135G G140C	≤ -4.2
A29C A49U G50C A119U	≤ -4.2
A29C A52U U53A U56G C57G A142C	≤ -4.2
A29C A64G C72G G88A G133C U151C	≤ -4.2
A29C A66C C76U G94A A107U C118G	≤ -4.2
A29C A89G C95G U139C G140A G141U A142C	≤ -4.2
A29C A120U G136A A142U	≤ -4.2
A29C C32G U61G C79A A91U C125A	≤ -4.2
A29C C35A	-3.91

Variant	polymerase ribozyme fitness (log ratio)
A29C C35U G50C G58U U61G C96A U134A	≤ -4.2
A29C C36G C38U A39U G62A G83C U134C	≤ -4.2
A29C C38G C54G G81A U82C C85G U90A G92U A110G G128C	≤ -4.2
A29C C43U C63A U78G G81A G94U C108U	≤ -4.2
A29C C54A C87U A113U A120U G124U U148C	≤ -4.2
A29C C54G A73G C79A G124A	≤ -4.2
A29C C54U C79G C116A A142C	≤ -4.2
A29C C54U C85G G86A C95G U139G C149G	≤ -4.2
A29C C57A G68A G88C C114U G117C A122G	≤ -4.2
A29C C79U G84A G100U C118G A150G	≤ -4.2
A29C C87G G117A	≤ -4.2
A29C C95A G117U G126U G141C G143C	≤ -4.2
A29C G48A A142U	≤ -4.2
A29C G48C	≤ -4.2
A29C G50C A64C C93G U102A	≤ -4.2
A29C G58C	-3.97
A29C G58C G86A C93U U111A U148A	≤ -4.2
A29C G62U G80C C118A	≤ -4.2
A29C G65A C108U C116G C125A U146G A150G	≤ -4.2
A29C U31C A41U C76G C95G	≤ -4.2
